# These are yes or no findings as the source states them, for the method shown. For part of these data: In cells and extracts the contact can be indirect. Some entries that bind do so weakly or less than the wild type. Sequences can lack the tags named with a protein.
# T1: Dsn1 (1-130) fused to Gal4-DBD (S. cerevisiae) (UniProt P40568)
# T1 sequence: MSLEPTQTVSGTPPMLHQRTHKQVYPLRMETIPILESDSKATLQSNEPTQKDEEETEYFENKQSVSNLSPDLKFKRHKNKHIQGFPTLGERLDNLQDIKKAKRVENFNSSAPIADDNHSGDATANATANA
# T2: Dsn1 (1-576) fused to Gal4-DBD (S. cerevisiae) (UniProt P40568)
# T2 sequence: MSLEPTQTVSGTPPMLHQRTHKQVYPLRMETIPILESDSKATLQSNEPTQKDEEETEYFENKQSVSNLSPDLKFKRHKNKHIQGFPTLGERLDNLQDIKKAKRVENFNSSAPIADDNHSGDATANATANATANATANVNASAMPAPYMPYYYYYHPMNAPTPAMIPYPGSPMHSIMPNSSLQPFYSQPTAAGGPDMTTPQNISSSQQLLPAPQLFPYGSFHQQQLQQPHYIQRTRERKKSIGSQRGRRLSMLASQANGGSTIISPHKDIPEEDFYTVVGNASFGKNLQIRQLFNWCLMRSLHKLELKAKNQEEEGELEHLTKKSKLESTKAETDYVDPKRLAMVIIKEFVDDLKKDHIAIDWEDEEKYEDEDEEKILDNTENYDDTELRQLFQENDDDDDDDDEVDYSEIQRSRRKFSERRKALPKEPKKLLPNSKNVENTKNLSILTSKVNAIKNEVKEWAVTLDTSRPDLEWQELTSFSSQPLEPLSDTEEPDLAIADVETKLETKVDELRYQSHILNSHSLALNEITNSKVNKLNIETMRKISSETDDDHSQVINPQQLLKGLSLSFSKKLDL
# T3: Dsn1 (1-220) fused to Gal4-DBD (S. cerevisiae) (UniProt P40568)
# T3 sequence: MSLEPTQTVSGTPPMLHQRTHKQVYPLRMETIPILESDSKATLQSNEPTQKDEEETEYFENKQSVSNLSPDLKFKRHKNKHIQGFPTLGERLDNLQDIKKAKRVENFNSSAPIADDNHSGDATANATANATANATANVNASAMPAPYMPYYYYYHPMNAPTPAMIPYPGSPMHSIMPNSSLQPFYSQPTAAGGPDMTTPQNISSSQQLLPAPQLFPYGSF
# T4: Dsn1 (131-220) fused to Gal4-DBD (S. cerevisiae) (UniProt P40568)
# T4 sequence: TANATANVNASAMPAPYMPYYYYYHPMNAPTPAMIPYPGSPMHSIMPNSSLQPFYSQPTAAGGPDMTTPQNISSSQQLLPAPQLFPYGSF
# T5: Dsn1 (353-576) fused to Gal4-DBD (S. cerevisiae) (UniProt P40568)
# T5 sequence: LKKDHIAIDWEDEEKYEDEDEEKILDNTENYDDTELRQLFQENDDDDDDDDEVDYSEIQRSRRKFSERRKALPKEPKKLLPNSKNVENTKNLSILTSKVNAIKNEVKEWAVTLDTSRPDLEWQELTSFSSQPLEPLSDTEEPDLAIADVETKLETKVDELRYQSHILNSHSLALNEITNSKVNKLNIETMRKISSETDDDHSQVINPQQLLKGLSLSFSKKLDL
# T6: Dsn1 (1-352) fused to Gal4-DBD (S. cerevisiae) (UniProt P40568)
# T6 sequence: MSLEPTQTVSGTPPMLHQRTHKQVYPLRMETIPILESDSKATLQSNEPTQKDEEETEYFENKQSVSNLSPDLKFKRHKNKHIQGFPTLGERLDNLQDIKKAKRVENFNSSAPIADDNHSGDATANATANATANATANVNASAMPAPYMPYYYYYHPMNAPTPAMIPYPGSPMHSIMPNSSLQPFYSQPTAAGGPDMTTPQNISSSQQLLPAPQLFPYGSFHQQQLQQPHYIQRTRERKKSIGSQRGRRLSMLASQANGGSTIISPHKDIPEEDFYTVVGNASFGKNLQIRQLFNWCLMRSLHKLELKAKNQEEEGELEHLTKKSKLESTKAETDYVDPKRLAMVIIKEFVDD
# T7: Csm1-MBP, full length (1-190) (S. cerevisiae) (UniProt P25651)
# T7 sequence: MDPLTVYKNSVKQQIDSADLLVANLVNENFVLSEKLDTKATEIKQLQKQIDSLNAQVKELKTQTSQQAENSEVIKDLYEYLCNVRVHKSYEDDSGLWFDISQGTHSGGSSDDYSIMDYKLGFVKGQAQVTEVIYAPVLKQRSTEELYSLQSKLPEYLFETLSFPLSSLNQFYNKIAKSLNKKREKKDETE
# T8: Csm1 (1-87)-MBP (S. cerevisiae) (UniProt P25651)
# T8 sequence: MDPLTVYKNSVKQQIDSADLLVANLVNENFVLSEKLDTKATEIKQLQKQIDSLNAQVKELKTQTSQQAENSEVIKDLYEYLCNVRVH
# T9: Csm1 (1-140)-MBP (S. cerevisiae) (UniProt P25651)
# T9 sequence: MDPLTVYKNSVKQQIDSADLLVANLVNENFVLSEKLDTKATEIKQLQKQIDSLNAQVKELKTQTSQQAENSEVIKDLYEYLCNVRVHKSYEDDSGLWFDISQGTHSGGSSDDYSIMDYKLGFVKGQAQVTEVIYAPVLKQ
# T10: Csm1 (141-190)-MBP (S. cerevisiae) (UniProt P25651)
# T10 sequence: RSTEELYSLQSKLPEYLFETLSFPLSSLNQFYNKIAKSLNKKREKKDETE
# T11: Csm1 (88-190)-MBP (S. cerevisiae) (UniProt P25651)
# T11 sequence: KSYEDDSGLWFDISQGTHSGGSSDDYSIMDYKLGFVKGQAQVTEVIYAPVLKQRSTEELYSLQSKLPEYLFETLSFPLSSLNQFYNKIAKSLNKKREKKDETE
# B1: Csm1 fused to Gal4-AD (protein, UniProt P25651 1-190)
# chain: T7 sequence
# B2: Dsn1-pk6, full length (protein, UniProt P40568 1-576)
# chain: T2 sequence
# B3: Dsn1-Δ110-pk6 (domain or fragment, UniProt P40568 111-576)
# chain: APIADDNHSGDATANATANATANATANVNASAMPAPYMPYYYYYHPMNAPTPAMIPYPGSPMHSIMPNSSLQPFYSQPTAAGGPDMTTPQNISSSQQLLPAPQLFPYGSFHQQQLQQPHYIQRTRERKKSIGSQRGRRLSMLASQANGGSTIISPHKDIPEEDFYTVVGNASFGKNLQIRQLFNWCLMRSLHKLELKAKNQEEEGELEHLTKKSKLESTKAETDYVDPKRLAMVIIKEFVDDLKKDHIAIDWEDEEKYEDEDEEKILDNTENYDDTELRQLFQENDDDDDDDDEVDYSEIQRSRRKFSERRKALPKEPKKLLPNSKNVENTKNLSILTSKVNAIKNEVKEWAVTLDTSRPDLEWQELTSFSSQPLEPLSDTEEPDLAIADVETKLETKVDELRYQSHILNSHSLALNEITNSKVNKLNIETMRKISSETDDDHSQVINPQQLLKGLSLSFSKKLDL
# Columns and labels:
# [1] = target: T1, Dsn1 (1-130) fused to Gal4-DBD (S. cerevisiae); assay: two-hybrid; Dsn1 and its variants fused to Gal4-DBD (pGBKT7), Csm1 fused to Gal4-AD (pGADT7) in AH109; growth on SD-LEU-TRP-ADE-HIS plates at 30°C for 2-3 days
# [2] = target: T2, Dsn1 (1-576) fused to Gal4-DBD (S. cerevisiae); assay: as above
# [3] = target: T3, Dsn1 (1-220) fused to Gal4-DBD (S. cerevisiae); assay: as above
# [4] = target: T4, Dsn1 (131-220) fused to Gal4-DBD (S. cerevisiae); assay: as above
# [5] = target: T5, Dsn1 (353-576) fused to Gal4-DBD (S. cerevisiae); assay: as above
# [6] = target: T6, Dsn1 (1-352) fused to Gal4-DBD (S. cerevisiae); assay: as above
# [7] = target: T7, Csm1-MBP, full length (1-190) (S. cerevisiae); assay: pull-down; Csm1-MBP (or variants) or MBP on amylose resin incubated with yeast extract containing Dsn1-pk6 or Dsn1-Δ110-pk6, 4°C, 30 minutes; washed with lysis buffer A containing 1% NP40; Western with anti-PK; only the target purified
# [8] = target: T8, Csm1 (1-87)-MBP (S. cerevisiae); assay: as above
# [9] = target: T9, Csm1 (1-140)-MBP (S. cerevisiae); assay: as above
# [10] = target: T10, Csm1 (141-190)-MBP (S. cerevisiae); assay: as above
# [11] = target: T11, Csm1 (88-190)-MBP (S. cerevisiae); assay: as above
Binder,binding [1],binding [2],binding [3],binding [4],binding [5],binding [6],binding [7],binding [8],binding [9],binding [10],binding [11]
B1,no binding,binds,binds,no binding,no binding,binds,,,,,
B2,,,,,,,binds,no binding,binds,binds,binds
B3,,,,,,,no binding,,,,

# From article PMC3701701
